Whole data set: some 33,000 sequences, median “E-score (dimensionless, -0.5 to 0.5)” near -0.058, cut for the highest 2% near 0.35. Some of the results follow.
System: MvaT
Experiment: PBM 8-mer E-score (mean of HK and ME arrays) (E-score (dimensionless, -0.5 to 0.5)); higher = stronger relative binding preference; most listed sequences are background and not binding sites
Procedure, shortened: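 Full-length P. aeruginosa MvaT carrying an N-terminal glutathione S-transferase tag was tested by protein binding microarray following a previously described protocol. Two universal double-stranded 60-mer arrays, ME and HK, were used, each with a constant 25-mer primer region and a variable 35-mer region covering all 8-mers. The rank-based E-score is the mean of the two arrays, parsed with a custom script. Its range runs from -0.5 to 0.5 for each 8-mer.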

Sequence | PBM 8-mer E-score
CCCCCGCG | -0.135
CAGCAAAA | 0.0343
CTCCTCTA | -0.13
CACCAACG | -0.152
AAAGCTAC | -0.172
CAGTAAAG | 0.0486
GGACGACA | -0.16
CGCAGAAA | 0.0151
GGTAGTGA | -0.163
AACGTTTC | -0.0596
AACTTAAA | 0.352
ATACTACA | 0.303
CACCAGCG | -0.298
ATTGGCCC | -0.0825
CCGCGGAC | -0.199
AACACTGT | 0.102
AATGAGAG | -0.0199
CAGAAACG | -0.154
GCGTCACC | -0.198
CTGAAATA | 0.201
AACCTTCC | -0.109
ATCGAAAA | 0.0682
CGGGCGCA | -0.18
GATGAAAC | -0.0763
AAAGTTTA | 0.353

Sequence | PBM 8-mer E-score
TAATTACA | 0.384
AAACATGC | 0.175
AGTAACGC | 0.0313
ATTAGCTG | 0.199
AAGGCCTG | -0.127
AGCGGGGC | -0.329
AGCGAATG | 0.052
ACCATACG | -0.0493
GGTTTACA | 0.114
ATCCAAAA | 0.1
GCTTCAGA | -0.254
CCATAAGA | -0.0202
CTCATGAG | -0.317
GAACTAGC | 0.0495
CATTAAAG | 0.272
CGCCGGCG | -0.347
CGCTAGAC | -0.224
CTTAAAAC | 0.175
AATCGGGT | 0.0817
ACAACACC | 0.202
GAAGTACC | 0.00631
GTCTCGCA | -0.0935
GGCCCCCC | -0.31
GAAATAGA | 0.158
CAGTCGTA | -0.199

Sequence | PBM 8-mer E-score
GTTCGCAA | 0.00892
AATATCAG | 0.273
ACTATAGT | 0.328
CTGCGGGC | -0.319
CTGCGGCC | -0.174
ACATAGGC | 0.0268
CCGATGTA | -0.0165
CTTCTACC | -0.0655
ATAGCCAC | -0.107
TATAGAAA | 0.205
AAAGTACC | 0.164
AGACCGTC | -0.239
CCTCCGCG | -0.122
AGTTGCCA | 0.0887
ACCATCCC | -0.125
CTTCCCTA | 0.0204
ACTCCAAA | 0.00956
CTGGTAAC | -0.0531
CCTGTCGA | -0.164
CACAGGGG | -0.21
CACTGTGC | -0.177
AATGACGG | 0.0872
AAAATGAG | 0.124
TGCGAACA | -0.00172
GGGGAAGA | -0.18

Sequence | PBM 8-mer E-score
ATCGCTAG | -0.0949
AGCCGCTC | -0.265
ATATGCGG | 0.0857
CTCCTCGC | -0.267
AGATCCCT | -0.128
AACTCTAG | -0.00057
AGGTCGGC | -0.289
CAAGTACC | -0.0373
ACGGAGTG | -0.14
AGCGCCAT | -0.212
ACCCGTGA | -0.204
CACCTTCA | 0.000508
AGCCGCTG | -0.12
AAGGAGGT | -0.297
GGGACCCC | -0.391
CTGCTAAC | 0.04
ACCACACC | -0.00167
GTGGCCGA | -0.152
AAACTGAG | 0.0492
AACGATCA | -0.0826
CAGTTAGC | 0.0275
CACTCAGA | -0.0498
GTGGATTA | 0.119
AGCAGGAC | -0.132
CCCCTGAC | -0.278

Sequence | PBM 8-mer E-score
AGTATTTC | 0.207
GATTCTCC | 0.0171
TATGTGGA | 0.241
ATGACCGG | -0.132
ACTCGAGC | -0.114
TAGGAGAA | 0.124
AAATCGGT | 0.0576
AAACTCGT | 0.16
CCCTTCAA | -0.141
ACAGGGGC | -0.246
AAGACAGT | 0.11
AGTAGAAG | -0.0262
CAGTGGTA | -0.0852
CCCCGAAC | -0.19
AGCTAGGA | -0.0988
AACAGACT | 0.0447
GCACCCAC | -0.0267
AATCTGGG | -0.122
ATAAGCGG | 0.0871
AAGGGGAA | 0.0209
CCCGTACC | -0.216
ACTAGGAT | 0.046
GCATACGC | -0.0631
AGTCAAAT | 0.0851
ATGATAGG | -0.0693

Sequence | PBM 8-mer E-score
AGGGTCCA | -0.285
AGCAGTAA | 0.0333
TTATTCAA | 0.244
AGGGGCGA | -0.155
GTGGTTTA | 0.197
CAGAGCGA | -0.261
CCTCGCAA | -0.0928
GCGCGCCA | -0.136
ACATCTAA | 0.241
AACCCTCG | -0.248
CTCCCGCC | -0.271
AGCAGAGG | -0.2
ACGTTCTC | -0.0618
CGACCCAA | -0.0201
GAATTGTC | 0.0347
ATCTGAGG | -0.0962
GGGGAACA | -0.0436
CGCTTCAC | -0.161
AGAGTAGG | -0.179
ACTCTTGC | 0.0633
ATACCCGA | -0.0266
ACTGTGAA | 0.0996
CACTTGCA | -0.05
CAAGGCGA | -0.231
GGTGAGAA | -0.16

Sequence | PBM 8-mer E-score
ACTCGATC | -0.132
CAGTTACG | 0.0696
TCCAGAAA | -0.00806
ATGCTATC | -0.049
CTAAGTGA | -0.0925
CTCCGGAG | -0.311
CACCCTTC | -0.27
TTACATAA | 0.317
TCCGCGGA | -0.0883
CAACAAAA | 0.198
ACATTGAG | -0.0188
GACTTAGA | 0.0453
CCCGTAAC | -0.0509
TGAGGCAA | -0.0518
AGGAAACG | -0.0786
ACGGTCAG | -0.285
ACTCTATG | -0.105
GCAGCGCA | -0.144
CTTTATCA | 0.182
CAAACAAG | 0.053
GCATCTCA | -0.157
ATGCATCA | 0.0359

Source: the supplement of paper PMC4466236
